Measurements reported in PubChem BioAssay AID1454 (National Center for Advancing Translational Sciences (NCATS), 2008).
Values joined by “and” are separate entries in the source; they are usually repeats but may differ in a detail not shown here. Equal entries are not always repeated. Hit rate of the full screen: of about 130,000 compounds, about 550 (0.42%) were called active. Inconclusive means that the source gave no clear call. Such entries were picked first, then a sample of the others. Calls follow the shape of the dose curve; as a rule, active = well fitted inhibition curve with a large enough effect; inconclusive = small, poorly fitted or top-dose-only effect, or effect the other way; inactive = flat fitted curve, though single readings scatter. Potencies beside an inconclusive call are fits to weak or partial responses and may not hold up.
Potency is read from the fitted curve at half-maximal effect; tags tell the direction and shape of the fitted curve.

Experiment: qHTS Assay for Inhibitors of the ERK Signaling Pathway using a Homogeneous Screening Assay; Stimulation with EGF; also: nearly all actives have a fitted effect of over 55% in size
Details: HEK293-V1b, EGF-stimulated phospho-ERK AlphaScreen
Summary of the method: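 Homogeneous cell-based phospho-ERK assay: HEK293/V1b cells in 1% FBS, compound 30 min then EGF 5 min, AlphaScreen luminescence. Activity normalized between DMSO and 25 nM EGF controls; AC50 from Hill modelling.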
In the case of O=C(O)C(O)c1ccccc1 (stereo not given), the Potency is reported as inconclusive: 3.98 µM [inhibitor, full curve]. With O=C(NCc1ccco1)c1ccc(COc2cccc3ccccc23)cc1 the Potency was inconclusive: 25.1 µM [inhibitor, single point]. In the case of O=[N+]([O-])c1ccc(N2CCCCC2)cc1NCCOc1ccccc1, the Potency is reported as inconclusive: 11.2 µM [inhibitor, partial curve]. For CCc1cccc2c(C(=O)COC(=O)c3ccccc3)c[nH]c12, the Potency was inconclusive: 31.6 µM [inhibitor, single point]. For Cc1ccc(C(=O)N/N=C/c2ccc(-c3cccc(Cl)c3)o2)cn1, the Potency was inconclusive: 39.8 µM [inhibitor, single point]. With Cn1cc(Cl)c(-c2n[nH]c(=S)n2-c2ccc(F)cc2)n1 the Potency was “inactive”. For Cc1noc(C)c1COc1ccc(C(=O)OCC(=O)NCc2ccccc2Cl)cc1, the Potency was inconclusive: 4.47 µM [inhibitor, full curve, poor fit]. With COc1ccc(CC(=O)c2ccc(OC)c(OC)c2C)cc1OC the Potency was inconclusive: 0.355 µM [inhibitor, partial curve, poor fit]. For COCC(=O)N1CCC2(CC1)CCN(C(=O)Nc1cccc(C#N)c1)CC2, the Potency was inconclusive: 8.91 µM [inhibitor, partial curve]. With CC[C@H](C)C(=O)O[C@H]1CCC=C2C=C[C@H](C)[C@H](CC[C@@H]3C[C@@H](O)CC(=O)O3)[C@H]21 the Potency was inconclusive: 31.6 µM [inhibitor, single point]. In the case of Cn1c(=O)c(Nc2ccc(O)cc2)c2c3c(cccc31)C(=O)c1ccccc1-2, the Potency is reported as active: 28.2 µM. With N#Cc1ccc(CN2CC[C@@]3(CCCN(C(=O)c4cc(C(F)(F)F)cc(C(F)(F)F)c4)C3)C2)cc1 the Potency was “inactive”. In the case of COc1ccc2c(c1)O[C@@H](c1cccc(C(F)(F)F)c1)[C@H](OC(=O)N[C@H](C)C1CCCCC1)C2=O, the Potency is reported as “inactive”. For COc1ccc2oc(=O)c(/C(C)=N/Nc3ccccc3)cc2c1, the Potency was inconclusive: 2.82 µM [inhibitor, partial curve]. For COc1ccc(NS(=O)(=O)c2cc(NC(=O)c3ccc(C)s3)ccc2N2CCOCC2)cc1, the Potency was inconclusive: 10 µM [activator, partial curve, poor fit]. For S=C(Nc1ccc(Nc2ccccc2)cc1)NC1CCCCCC1, the Potency was inconclusive: 25.1 µM [inhibitor, partial curve]. In the case of O=C(c1ccc(Cl)c(S(=O)(=O)N2CCCCCC2)c1)N1CCN(c2ccccc2O)CC1, the Potency is reported as inconclusive: 20 µM [inhibitor, single point]. In the case of CCOC(=O)c1c(C)[nH]c(C(=O)N/N=C/c2ccc(Br)cc2)c1C, the Potency is reported as inconclusive: 28.2 µM [inhibitor, single point]. In the case of CCOC(=O)c1ccc(N2N=C(C)/C(=C/C=C/c3ccco3)C2=O)cc1, the Potency is reported as inconclusive: 10 µM [inhibitor, partial curve]. With Cc1cccc(NC(=S)N2CCN(C(=O)C3CCCO3)CC2)c1 (stereo not given) the Potency was “inactive”. For CC(C)(C)[C@@H]1C=C(C(=O)N2CCN(Cc3ccccc3)CC2)O[C@H](OCc2ccc(CO)cc2)C1, the Potency was inconclusive: 7.08 µM [inhibitor, partial curve]. With Cc1ccc(N(C)C(=O)c2ccc3c(Cl)c4c(nc3c2)CCC4)cc1C the Potency was inconclusive: 39.8 µM [inhibitor, single point]. In the case of Cc1ccc(C(=O)NC(=S)NCCCN2CCOCC2)cc1, the Potency is reported as inconclusive: 17.8 µM [inhibitor, partial curve, poor fit]. In the case of COc1ccc(-c2cc(=Nc3ccc(C)cc3)c3ccccc3o2)cc1, the Potency is reported as inconclusive: 14.1 µM [inhibitor, partial curve]. For Cc1ccc(N2CCN(C(=S)c3ccc(-c4cccc([N+](=O)[O-])c4)o3)CC2)cc1, the Potency was inconclusive: 22.4 µM [inhibitor, partial curve]. In the case of CC(=O)[C@]1(O)Cc2c(O)c3c(c(O)c2[C@@H](O[C@H]2C[C@H](N)[C@H](O)[C@H](C)O2)C1)C(=O)c1ccccc1C3=O, the Potency is reported as inconclusive: 22.4 µM [inhibitor, single point]. For O=C(/C=C/c1cccc([N+](=O)[O-])c1)NCCSCc1ccc(Cl)cc1, the Potency was inconclusive: 25.1 µM [inhibitor, single point]. In the case of COC(=O)c1c(NC(=O)c2ccc(OC(C)C)cc2)sc2c1CC(C)(C)NC2(C)C, the Potency is reported as active: 28.2 µM. With CCOC(=O)CC1=NN(c2ccccc2)C(=O)/C1=C\c1ccc(N(C)C)cc1 the Potency was active: 25.1 µM. With Cc1cc(C(=O)CSc2nc3ccccc3[nH]2)c(C)n1Cc1ccco1 the Potency was active: 17.8 µM. With CC(=O)c1cnn(-c2ccccc2)c1C the Potency was inconclusive: 39.8 µM [inhibitor, single point]. In the case of COc1ccccc1/C=C/C=C1N=C(/C=C/c2ccc(Cl)cc2)OC/1=O, the Potency is reported as inconclusive: 31.6 µM [inhibitor, single point]. With Cc1[nH]c2ccccc2c1CCNC(=O)c1c(N)no[n+]1[O-] the Potency was inconclusive: 39.8 µM [inhibitor, single point]. For CCOC(=O)c1c(C)oc2ccc(OC(=O)COc3c(F)c(F)c(F)c(F)c3F)cc12, the Potency was inconclusive: 39.8 µM [activator, single point]. For CCCOc1ccc(C(=O)CCC(=O)OCC(=O)Nc2ccc(OCC)cc2)cc1, the Potency was inconclusive: 0.708 µM [inhibitor, partial curve, poor fit]. With Cc1c(N=C2C=CC(=O)c3ccccc32)c(=O)n(-c2ccccc2)n1C the Potency was inconclusive: 31.6 µM [inhibitor, partial curve]. With CC(=O)N[C@@H](Cc1c[nH]c2ccccc12)C(=O)OCC(=O)NCc1ccc2c(c1)OCO2 the Potency was inconclusive: 0.355 µM [activator, full curve, poor fit]. In the case of O=C1NC(=S)S/C1=C\c1ccc(SCc2ccco2)o1, the Potency is reported as inconclusive: 25.1 µM [inhibitor, partial curve]. In the case of CC1=C(/C=N/Nc2ccc([N+](=O)[O-])cc2[N+](=O)[O-])C(C)(C)CCC1, the Potency is reported as active: 14.1 µM. With Cc1ccc(Sc2ncnc3onc(C)c23)c(C)c1 the Potency was “inactive”. For O=C(Nc1ccc(-c2nc3ccccc3o2)cc1)c1cc(-n2cnnc2)ccc1Cl, the Potency was inconclusive: 31.6 µM [inhibitor, single point]. For Fc1ccccc1-c1nc(NCc2ccccc2)c2ccccc2n1, the Potency was inconclusive: 12.6 µM [inhibitor, partial curve]. For O=C(Nc1cccc(C(F)(F)F)c1)c1csc(-c2ccncc2)n1, the Potency was inconclusive: 28.2 µM [inhibitor, partial curve]. In the case of Nc1ccccc1Nc1cc(-c2ccccc2)nn1-c1cccc(Cl)c1, the Potency is reported as inconclusive: 31.6 µM [inhibitor, single point]. For O=C1c2ccccc2C(=O)c2c1ccc(O)c2O, the Potency was inconclusive: 15.8 µM [inhibitor, single point]. With COc1ccc(-c2ccc(OC)c([C@H]3[C@H]4C=CC[C@@H](C)[C@@H]4C(=O)N3Cc3ccccc3)c2)cc1C the Potency was “inactive”. In the case of Cc1ccc(C)c(NC(=S)N(Cc2ccc(Cl)cc2)Cc2ccc(C(=O)O)cc2)c1, the Potency is reported as inconclusive: 39.8 µM [inhibitor, single point]. With COC(=O)/C(=C\c1cc(OC)c(OC)c(OC)c1)c1nc2ccccc2[nH]1 the Potency was “inactive”. In the case of C/C(=N\Nc1nc2ccccc2[nH]1)c1ccc([N+](=O)[O-])cc1, the Potency is reported as inconclusive: 25.1 µM [inhibitor, partial curve]. For O=C(O)/C=C/c1nc(-c2ccccc2)n2ccccc12, the Potency was inconclusive: 0.282 µM [activator, full curve]. In the case of O=C(OCC1OC(OC(=O)c2cc(O)c(O)c(OC(=O)c3cc(O)c(O)c(O)c3)c2)[C@@H](OC(=O)c2cc(O)c(O)c(OC(=O)c3cc(O)c(O)c(O)c3)c2)C(OC(=O)c2cc(O)c(O)c(OC(=O)c3cc(O)c(O)c(O)c3)c2)C1OC(=O)c1cc(O)c(O)c(OC(=O)c2cc(O)c(O)c(O)c2)c1)c1cc(O)c(O)c(OC(=O)c2cc(O)c(O)c(O)c2)c1 (stereo not given in full), the Potency is reported as active: 7.94 µM. For CN1CCN(CCCN2c3ccccc3Sc3ccc(Cl)cc32)CC1, the Potency was inconclusive: 25.1 µM [inhibitor, single point] and inconclusive: 39.8 µM [inhibitor, single point]. With S=C(Nc1ccc(Cl)cc1Cl)NC1CCCCC1 the Potency was inconclusive: 25.1 µM [inhibitor, single point]. For C=CCSc1nc2c(c(=O)[nH]c(=O)n2C)n1Cc1ccc(C)cc1, the Potency was inconclusive: 0.112 µM [activator, full curve, poor fit]. For N=C1SC(CC(=O)Nc2ccccc2[N+](=O)[O-])C(=O)N1c1ccccc1 (stereo not given), the Potency was “inactive”. In the case of N=C1/C(=C\c2ccc(SCc3ccccc3)o2)C(=O)N=C2SC(CC(=O)N3CCOCC3)=NN12, the Potency is reported as inconclusive: 39.8 µM [inhibitor, partial curve]. With COc1cccc(-c2nn(-c3ccccc3)cc2CN(C)Cc2ccno2)c1 the Potency was inconclusive: 15.8 µM [inhibitor, partial curve, poor fit]. With COc1ccc(Br)cc1C(=O)Nc1ccc(C(=O)NCC(C)C)cc1 the Potency was “inactive”. In the case of O=C1S/C(=C\c2ccc(O)c([N+](=O)[O-])c2)C(=O)N1Cc1cccc([N+](=O)[O-])c1, the Potency is reported as inconclusive: 22.4 µM [inhibitor, single point]. With CSC1=N/C(=C/c2cccnc2)C(=O)N1Cc1ccc(Cl)cc1 the Potency was inconclusive: 39.8 µM [inhibitor, single point].
